Measured values: the supplement of paper PMC4967469
IC50 is the fitted dose that halves viability relative to control wells, and lower means more sensitive; where the fit passes the top or lowest dose, that dose stands as a limit. The AUC spans the tested range (256-fold, ending at the top dose) of the same fit; it is 1 without any effect and falls as sensitivity rises. An inferred top dose was calculated from the reported fits.

The cell lines below were run with CCc1nc(-c2cccc(C)c2)c(-c2ccnc(NC(=O)c3ccccc3)c2)s1 [TAK-715] (assay: Viability of human cancer cell lines after 72 h of drug (GDSC screen)). Settings: top dose inferred.
Procedure: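 Human cancer cell lines in 384-well plates, medium with 10% serum, drug for 72 h over a 256-fold dose range (nine 2-fold or five 4-fold steps up to the top dose). Adherent lines were fixed and stained with the nucleic acid dye Syto60, suspension lines read with resazurin; signal relative to control wells, capped at 0 and 100%. One two-parameter sigmoid per drug and line, fitted in a mixed model over all curves with the slope shared within a line.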

Row | Cell Line | AUC | IC50 [µM]
1 | MEL-JUSO (melanoma, adherent, top dose 20 µM) | 0.954 | > 20
2 | MES-SA (uterus, adherent, top dose 20 µM) | 0.93 | > 20
3 | MFE-280 (endometrium, adherent, top dose 20 µM) | 0.906 | > 20
4 | MFE-296 (endometrium, adherent, top dose 20 µM) | 0.982 | > 20
5 | MFE-319 (endometrium, adherent, top dose 20 µM) | 0.969 | > 20
6 | MFH-ino (soft tissue, adherent, top dose 20 µM) | 0.961 | > 20
7 | MFM-223 (breast, adherent, top dose 20 µM) | 0.929 | > 20
8 | MG-63 (osteosarcoma, adherent, top dose 20 µM) | 0.984 | > 20
9 | MHH-ES-1 (Ewing sarcoma, adherent, top dose 20 µM) | 0.874 | 19
10 | MHH-NB-11 (neuroblastoma, adherent, top dose 20 µM) | 0.907 | > 20
11 | MHH-PREB-1 (B-cell leukaemia, suspension, top dose 20 µM) | 0.912 | > 20
12 | MIA-PaCa-2 (pancreas, adherent, top dose 20 µM) | 0.957 | > 20
13 | MKN1 (stomach, adherent, top dose 20 µM) | 0.896 | > 20
14 | MKN28 (stomach, adherent, top dose 20 µM) | 0.943 | > 20
15 | MKN45 (stomach, adherent, top dose 20 µM) | 0.925 | > 20
16 | ML-1 (thyroid, adherent, top dose 20 µM) | 0.984 | > 20
17 | ML-2 (acute myeloid leukaemia, suspension, top dose 20 µM) | 0.898 | > 20
18 | MLMA (hairy cell leukaemia, semi-adherent, top dose 20 µM) | 0.901 | > 20
19 | MMAC-SF (melanoma, adherent, top dose 20 µM) | 0.976 | > 20
20 | MN-60 (B-cell leukaemia, suspension, top dose 20 µM) | 0.841 | 14.7

Row | Cell Line | AUC | IC50 [µM]
21 | MOG-G-CCM (glioma, adherent, top dose 20 µM) | 0.816 | 13.5
22 | MOG-G-UVW (glioma, adherent, top dose 20 µM) | 0.854 | 15.1
23 | MOLM-13 (acute myeloid leukaemia, suspension, top dose 20 µM) | 0.812 | 9.86
24 | MOLP-8 (myeloma, suspension, top dose 20 µM) | 0.672 | 3.69
25 | MOLT-4 (lymphoblastic leukaemia, suspension, top dose 20 µM) | 0.847 | 10.8
26 | MOLT-13 (T-cell lymphoblastic leukaemia, suspension, top dose 20 µM) | 0.869 | 14.8
27 | MONO-MAC-6 (acute myeloid leukaemia, suspension, top dose 20 µM) | 0.891 | > 20
28 | MPP-89 (mesothelioma, adherent, top dose 20 µM) | 0.977 | > 20
29 | MRK-nu-1 (breast, suspension, top dose 20 µM) | 0.99 | > 20
30 | MS751 (cervix, adherent, top dose 20 µM) | 0.956 | > 20
31 | MS-1 (small cell lung carcinoma, suspension, top dose 20 µM) | 0.918 | > 20
32 | MSTO-211H (mesothelioma, adherent, top dose 20 µM) | 0.976 | > 20
33 | MV-4-11 (leukaemia, suspension, top dose 20 µM) | 0.882 | 14.7
34 | MY-M12 (leukaemia, suspension, top dose 20 µM) | 0.863 | > 20
35 | MZ1-PC (pancreas, adherent, top dose 20 µM) | 0.923 | > 20
36 | MZ2-MEL (melanoma, adherent, top dose 20 µM) | 0.945 | > 20
37 | MZ7-mel (melanoma, adherent, top dose 20 µM) | 0.954 | > 20
38 | Mewo (melanoma, adherent, top dose 20 µM) | 0.978 | > 20
39 | Mo-T (hairy cell leukaemia, suspension, top dose 20 µM) | 0.87 | 19.4
40 | NALM-6 (B-cell leukaemia, suspension, top dose 20 µM) | 0.883 | 15.5
